# Laboratory results from paper PMC4336329 (PLoS ONE, 2015).
# Out of some 310,000 compounds screened, about 14,000 (4.5%) showed an effect of 50% or more. Effects have a minus sign here. The list shows a part of the results.
# Biological target: human ether-à-go-go-related gene (hERG) potassium channel (human, UniProt Q12809)
# Experiment: primary screen, population patch clamp on CHO cells stably expressing hERG
# 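Also: peak tail current of the secondary pulse compared with the same well before compound.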
# human ether-à-go-go-related gene (hERG) potassium channel, sequence (Q12809 whole entry, looked up): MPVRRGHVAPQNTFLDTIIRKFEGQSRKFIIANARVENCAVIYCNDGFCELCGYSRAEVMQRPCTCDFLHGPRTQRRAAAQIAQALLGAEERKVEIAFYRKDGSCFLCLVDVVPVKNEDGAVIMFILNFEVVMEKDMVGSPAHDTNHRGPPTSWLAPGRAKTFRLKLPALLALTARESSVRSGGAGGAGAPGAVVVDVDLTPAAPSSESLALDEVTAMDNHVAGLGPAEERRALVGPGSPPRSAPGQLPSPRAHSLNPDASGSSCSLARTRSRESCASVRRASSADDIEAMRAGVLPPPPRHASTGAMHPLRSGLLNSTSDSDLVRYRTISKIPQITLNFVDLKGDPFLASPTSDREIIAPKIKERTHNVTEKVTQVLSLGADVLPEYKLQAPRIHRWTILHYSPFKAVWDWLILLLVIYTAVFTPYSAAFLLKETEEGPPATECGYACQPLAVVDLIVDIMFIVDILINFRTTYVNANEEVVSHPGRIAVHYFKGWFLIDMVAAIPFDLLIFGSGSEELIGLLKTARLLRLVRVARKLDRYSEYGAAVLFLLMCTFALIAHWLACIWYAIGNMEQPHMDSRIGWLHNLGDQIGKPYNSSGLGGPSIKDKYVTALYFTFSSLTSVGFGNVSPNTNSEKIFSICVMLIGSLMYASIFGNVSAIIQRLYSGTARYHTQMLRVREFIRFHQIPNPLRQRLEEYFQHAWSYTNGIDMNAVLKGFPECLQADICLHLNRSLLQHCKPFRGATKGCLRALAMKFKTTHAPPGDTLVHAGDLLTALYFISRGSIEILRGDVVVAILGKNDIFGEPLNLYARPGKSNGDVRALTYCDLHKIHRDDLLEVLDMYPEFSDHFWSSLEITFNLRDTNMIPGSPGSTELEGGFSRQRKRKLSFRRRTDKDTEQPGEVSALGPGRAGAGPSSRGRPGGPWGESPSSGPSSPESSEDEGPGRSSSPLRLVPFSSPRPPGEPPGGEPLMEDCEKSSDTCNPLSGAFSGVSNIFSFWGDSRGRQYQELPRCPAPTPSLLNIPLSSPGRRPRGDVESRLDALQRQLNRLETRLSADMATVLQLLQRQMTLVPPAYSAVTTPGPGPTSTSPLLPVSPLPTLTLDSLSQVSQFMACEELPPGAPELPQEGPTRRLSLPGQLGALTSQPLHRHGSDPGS
row,Compound,"hERG current change (%, negative = inhibition) at 10uM"
1,CC1CCN(C(=S)c2ccc3c(c2)OCO3)CC1,-1.08%
2,CN1CCN(C(=O)COc2ccc(S(=O)(=O)N(C)Cc3ccccc3)cc2)CC1,-30.7%
3,Cl.N=c1sccn1CC(=O)Nc1ccc(Cl)cc1[N+](=O)[O-],-21%
4,O=C(C1=C[C@@H](c2coc3ccccc3c2=O)C[C@@H](OCCCCO)O1)N1CCOCC1,7.47%
5,Cc1ccc(C(=C2C3C=CC2C2C(=O)NC(=O)C32)c2ccc(C)cc2)cc1 (stereo not drawn),6.93%
6,COC(=O)C1=C(N)OC2=C(C(=O)CC(C)(C)C2)C1c1ccccc1OC (stereo not drawn),11.2%
7,CSCCC(NC(=O)c1cccc(S(=O)(=O)N2CCOCC2)c1)C(=O)Nc1ccc(F)cc1 (stereo not drawn),-18.2%
8,Cc1ccc2c(COC(=O)c3ccccc3Br)cc(=O)oc2c1,20.8%
9,COCCNC(=O)C(=O)Nc1cc2c3c(c1)C(C)C(=O)N3CCC2 (stereo not drawn),-0.505%
10,Nc1nc(-c2ccc(Oc3ccccc3)cc2)cs1,-4.26%
11,O=C(Nc1ccccc1O)c1nc(Cl)ccc1Cl,21.7%
12,O=C(O)CNC(=O)CC1S/C(=N/N=C2\CSC(=O)N2)NC1=O (stereo not drawn),9.57%
13,CCOC(=O)CSc1nnc([C@@H](NC(=O)OC(C)(C)C)C(C)C)o1,11.3%
14,CCNc1nc(NC#N)nc(SCC(=O)OCC)n1,-2.05%
15,O=C(NCc1ccccc1)C1CC2CCCC(C1)C2=O (stereo not drawn),12%
16,COc1ccc(/C=N\NC(=O)c2ccc(=O)[nH]n2)cc1O,18.4%
17,COc1cccc(CN2CCC(C(=O)N3CCC(C)CC3)CC2)c1.O=C(O)C(=O)O,-11%
18,CCc1cccc(NS(=O)(=O)c2ccc3c(c2)oc(=O)n3C)c1,-8.3%
19,COC(=O)c1ccccc1NC(=O)C1CC(c2ccccc2O)=NO1 (stereo not drawn),1.61%

row,Compound,"hERG current change (%, negative = inhibition) at 10uM"
1,CC(=O)c1c(C)[nH]c(C(=O)OCC(=O)C(C)(C)C)c1C,-2.38%
2,COc1ccc(C(=O)N2CCN(C)C(=O)[C@@H]2C)cc1OC1CCN(C(C)C)CC1,9.56%
3,CC(=NCCCN1CCOCC1)c1c(O)n(Cc2ccccc2)c(=O)[nH]c1=O,-19.5%
4,CCN(CC)CCOCCOc1ccc(Cl)c2ccccc12,-68%
5,O=C(/C=C/c1ccc(Cl)cc1)N1CCN(Cc2ccccc2)CC1,-35.6%
6,CCOc1ccc(CSCCNC(=S)Nc2ccccc2)cc1,-6.35%
7,Cc1cc(C)cc(NC(=O)CCc2c(C)nn(-c3ccc(N4CCOCC4)nn3)c2C)c1,-5.1%
8,CS(=O)(=O)c1ccc2c(c1)SC1=NC(=O)/C(=C/c3ccco3)C(=N)N12,27.1%
9,COc1ccc(S(=O)(=O)Nc2ccc3c(c2)OCO3)cc1C,-9.09%
10,Cc1ccc(C(=O)N2CCN(c3ccc([N+](=O)[O-])c(NCc4ccco4)c3)CC2)cc1,-50.5%
11,S=C(Nc1ccc2c(c1)OCO2)N1CCN(Cc2ccco2)CC1,14%
12,O=C(O)CN1C(=O)/C(=C\c2cn(CC(=O)N3CCOCC3)c3ccccc23)SC1=S,1.29%
13,c1ccc(Oc2cccc3cccnc23)nc1,10.7%
14,Cc1cc(C(C)(C)C)cc(C)c1N.Cl,4.49%
15,CCOc1ccc(N2C(=O)CC(Sc3nc(C)cc(C)c3C#N)C2=O)cc1 (stereo not drawn),10.5%
16,Cc1nn(CC(=O)NCCc2ccccc2)c(=O)c2cc3occc3n12,14.5%
17,COc1cc(NC(=O)C2CCCCC2)c(OC)cc1NC(=O)CCC(=O)NCc1ccco1,-22.8%
18,COC(=O)[C@H](CC(C)C)NS(=O)(=O)N(Cc1ccccc1)[C@@H](CC(C)C)C(=O)OC,1.72%
19,COc1ccc(CC(NC(C)=O)C(=O)NC2CCN(C(=O)Nc3ccc(C#N)cc3)CC2)cc1OC (stereo not drawn),5.33%

row,Compound,"hERG current change (%, negative = inhibition) at 10uM"
1,O=C1CC[C@@H](CN(Cc2ccccn2)Cc2nc(Cc3cccc(C(F)(F)F)c3)no2)N1,-48.4%
2,CCS(=O)(=O)c1ccc2oc(Nc3ccccc3Cl)nc2c1,10.4%
3,COc1ccc(CCNC(=O)c2cc([N+](=O)[O-])ccc2N2CCOCC2)cc1,-33%
4,CCOc1cc(CNS(=O)(=O)c2cn(C)cn2)cc(OCC)c1OCC,27.4%
5,COc1cccc(CSc2nc3nc(C)cc(C)n3n2)c1,-4.72%
6,Cc1ccccc1OCC(=O)Nc1nc(C)c(C(=O)N(C)C)s1,2.53%
7,CCOC(=O)C1(Cc2cccc(OC)c2)CCCN(C(=O)c2cc(C)oc2C)C1 (stereo not drawn),-6.37%
8,CN1CC2CCCC3(C1)C(=O)NC1(CCCCC1)N=C23 (stereo not drawn),2.95%
9,Br.OCCn1c(-c2ccc(F)cc2)csc1=Nc1ccccc1,-31.4%
10,N#Cc1ccc(-c2ccccc2)nc1Sc1ccc(F)cc1,13.2%
11,Cc1ccc(NC(=O)CN(C)S(=O)(=O)c2ccc(Cl)s2)c(O)c1,2.29%
12,CC(C)CCNC(=O)C(c1ccncc1)N(Cc1cccs1)C(=O)Cn1nnc(-c2ccc(F)cc2)n1 (stereo not drawn),-8.51%
13,CCc1c(C)sc(NC(=O)c2cc(C3CC3)on2)c1C#N,9.61%
14,Cc1ccc(/C=N/n2cnc3sc4c(c3c2=O)CCCC4)o1,-12.6%
15,Cc1ccc(-n2c(C)cc(=O)cc2C)cc1[N+](=O)[O-],26.3%
16,Cc1ccc(C)c(NC(=S)c2ccccn2)c1,18.9%
17,CCCCSc1nnc(CCC)n1N,-2.49%
18,COC(=O)CNC(=O)Cn1cnc2sc(C)c(S(=O)(=O)N3CCC(C)CC3)c2c1=O,-2.53%
19,COC(=O)c1ccc2c(c1)S(=O)(=O)NC(=NCc1ccco1)S2,-23.8%
